Measured values taken from PubChem BioAssay AID1460 (National Center for Advancing Translational Sciences (NCATS), 2008).
“And” between values parts separate entries of the source, which are not always exact repeats. Equal entries are not always repeated. Among all 270,000 compounds or so, about 5,800 (2.1%) were called active. The shares of active, inactive and inconclusive entries below differ from those in the screen. Calls follow the shape of the dose curve; as a rule, active = well fitted inhibition curve with a large enough effect; inconclusive = small, poorly fitted or top-dose-only effect; inactive = flat fitted curve, though single readings scatter. A potency beside an inconclusive call is a rough fit, not a confirmed value.
Also: nearly all actives have a fitted effect of over 55% in size.
Potency is read from the fitted curve at half-maximal effect; tags tell the direction and shape of the fitted curve.

These compounds were tested against Microtubule-associated protein tau (Homo sapiens) (UniProt P10636) (assay: qHTS for Inhibitors of Tau Fibril Formation, Thioflavin T Binding). Details: recombinant tau K18 P301L (four-repeat tau fragment), heparin-induced fibrillization, ThT fluorescence; series mostly up to 57.4 µM.
UniProt P10636, sequence (P10636 whole entry, looked up, the tested form may be a part): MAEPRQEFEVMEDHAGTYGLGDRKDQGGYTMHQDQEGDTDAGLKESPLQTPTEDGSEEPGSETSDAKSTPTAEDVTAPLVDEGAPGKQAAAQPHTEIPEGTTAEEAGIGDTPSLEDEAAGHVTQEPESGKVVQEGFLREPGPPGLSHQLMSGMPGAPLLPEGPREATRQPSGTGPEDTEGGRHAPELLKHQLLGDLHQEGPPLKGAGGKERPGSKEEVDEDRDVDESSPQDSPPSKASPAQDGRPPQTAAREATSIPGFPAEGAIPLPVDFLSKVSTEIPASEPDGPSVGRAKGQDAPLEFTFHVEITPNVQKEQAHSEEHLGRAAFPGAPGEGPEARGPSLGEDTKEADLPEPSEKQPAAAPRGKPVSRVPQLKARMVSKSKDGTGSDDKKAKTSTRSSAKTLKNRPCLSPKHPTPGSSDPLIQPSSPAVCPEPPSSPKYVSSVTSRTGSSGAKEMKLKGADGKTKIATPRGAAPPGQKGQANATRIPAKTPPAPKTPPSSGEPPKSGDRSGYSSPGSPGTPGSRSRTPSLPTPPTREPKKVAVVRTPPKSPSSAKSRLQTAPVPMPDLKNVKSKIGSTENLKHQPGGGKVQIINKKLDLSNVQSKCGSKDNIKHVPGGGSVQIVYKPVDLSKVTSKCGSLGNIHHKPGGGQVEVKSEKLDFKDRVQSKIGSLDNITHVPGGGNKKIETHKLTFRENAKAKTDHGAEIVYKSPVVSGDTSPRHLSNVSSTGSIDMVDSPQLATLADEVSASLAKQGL
How it was run: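 Heparin-induced (20 uM) aggregation of recombinant human K18 P301L tau, 15 uM unlabeled with 0.24 uM labeled, pH 7 acetate buffer, 6 hr at 37 C with compound. Fibrils quantified by 30 uM ThT fluorescence after 1 hr ambient incubation.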
With `COc1ccc(OCCSc2ncnc3nc[nH]c23)cc1` the Potency was “inactive”. In the case of `CCOC(=O)C1=C(C)OC2(O)c3ccccc3C(=O)C12O` (configuration not stated), the Potency is reported as active: 2 µM. `COc1ccccc1-c1c(C)nn2c(N3CCCCCC3)cc(C)nc12` was tested, and the Potency was “inactive”. In the case of `COc1ccccc1NC(=O)c1ccccc1NS(=O)(=O)c1cccs1`, the Potency is reported as “inactive”. With `Cc1nn(-c2ccccc2)c(N)c1C(O)(CSc1nccn1C)C(F)(F)F` (configuration not stated) the Potency was inconclusive: 28.2 µM [inhibitor, single point]. In the case of `CN(C)c1ccc(C2Nc3ccccc3C(=O)N2CCN2CCNC2=O)cc1` (configuration not stated), the Potency is reported as inconclusive: 39.8 µM [inhibitor, single point]. With `Cc1cc(=O)n2nc(N3CCC(C(=O)N4CCN(C)CC4)CC3)sc2n1` the Potency was inconclusive: 20 µM [inhibitor, partial curve]. In the case of `COc1ccccc1NC(=O)NCc1cccn1Cc1ccccc1`, the Potency is reported as “inactive”. With `Cn1c(/C(C#N)=N/O)nc2ccccc21` the Potency was “inactive”. `COc1ccc(CCCc2nnc(SCC(=O)Nc3ccccc3F)o2)cc1` was tested, and the Potency was inconclusive: 11.2 µM [inhibitor, partial curve]. In the case of `Cn1c(/C=C/c2ccc([N+](=O)[O-])o2)nc2ccccc2c1=O`, the Potency is reported as inconclusive: 31.6 µM [inhibitor, partial curve]. In the case of `O=C(O)CC/C(=C\c1ccc(N2CCCC2)c([N+](=O)[O-])c1)c1nc2ccccc2s1`, the Potency is reported as active: 4.47 µM. `O=C(/C=C/c1ccccc1Cl)c1ccc[nH]1` was tested, and the Potency was inconclusive: 28.2 µM [inhibitor, single point]. With `COc1ccc(CNCCC(c2ccccc2)c2ccc3c(c2)OCO3)cc1` (configuration not stated) the Potency was “inactive”. For `O=C(CC(c1ccccc1)c1cc(Br)ccc1O)N1CCCCC1` (configuration not stated), the Potency was “inactive”. For `CC(=O)c1c(C)[nH]c(C(=O)OCC(=O)Nc2sc3c(c2C#N)CCCC3)c1C`, the Potency was inconclusive: 12.6 µM [inhibitor, partial curve]. For `CN1CCN(Cn2cc(/C=C/C(=O)c3ccccc3)c3ccccc32)CC1`, the Potency was inconclusive: 31.6 µM [inhibitor, partial curve]. `CCCCn1c(NCc2cc(Cl)ccc2O)nc2ccccc21` was tested, and the Potency was “inactive”. `Nc1c(-c2nc(-c3ccc4c(c3)OCO4)cs2)c2ccccn2c1C(=O)c1ccccc1` was tested, and the Potency was inconclusive: 2 µM [inhibitor, partial curve]. In the case of `CCOC(=O)N/N=C\c1ccc([N+](=O)[O-])s1`, the Potency is reported as inconclusive: 12.6 µM [inhibitor, partial curve]. `Cc1cc(=O)oc2c3c4c(cc12)OCCN4CCC3` was tested, and the Potency was inconclusive: 39.8 µM [inhibitor, partial curve]. For `CC(C)N1CCc2c(sc(NC(=O)c3ccc(S(=O)(=O)N4CCc5ccccc54)cc3)c2C(N)=O)C1`, the Potency was inconclusive: 39.8 µM [inhibitor, single point]. In the case of `COc1ccc(NC(=O)CC2C(=O)N(c3ccc(F)cc3)C(=S)N2NC(=O)c2ccc(Cl)cc2)cc1` (configuration not stated), the Potency is reported as inconclusive: 31.6 µM [activator, single point]. With `Cc1ccc(S(=O)(=O)Nc2ccc3c(c2)OCCO3)cc1` the Potency was “inactive”. `Cc1cc(Nc2ccccc2)c2c([N+](=O)[O-])c(C)cc(C)c2n1` was tested, and the Potency was inconclusive: 28.2 µM [inhibitor, single point]. In the case of `CCOc1ccc(CCNC(=O)CCc2c(C)nc3cc(-c4ccccc4OC)nn3c2C)cc1`, the Potency is reported as inconclusive: 14.1 µM [inhibitor, partial curve]. For `Cc1ccc(/C=N/N=C2/NC(=O)CS2)o1`, the Potency was inconclusive: 20 µM [inhibitor, single point]. With `COc1ccccc1N1CCN(CC(O)COc2c(OC)cccc2OC)CC1` (configuration not stated) the Potency was active: 20 µM. For `Cc1ccc(/C=C/C(=O)N2CCN(S(=O)(=O)c3ccc(C)c(C)c3)CC2)o1`, the Potency was inconclusive: 22.4 µM [inhibitor, single point]. In the case of `Cc1c(-c2nsc(NC(=O)c3cccc(Cl)c3)n2)nnn1-c1ccccc1C(F)(F)F`, the Potency is reported as “inactive”. `Cc1cc(C)cc(N=C2NC(=O)/C(=C/c3cccs3)S2)c1` was tested, and the Potency was inconclusive: 35.5 µM [inhibitor, single point]. With `O=C(CSc1nc(-c2cccs2)nc2cc(=O)[nH]n12)Nc1ccccc1F` the Potency was “inactive”. For `COc1ccc(N=N/C(C(C)=O)=C(/C)O)cc1`, the Potency was active: 15.8 µM. In the case of `COC(=O)CCCC1=CC2=C(c3ccccc3)C(=O)C(C)(OC(=O)C3CCCC3)C(=O)C2=CN1Cc1ccc(OC)cc1` (configuration not stated), the Potency is reported as inconclusive: 28.2 µM [inhibitor, single point]. With `O=[N+]([O-])c1ccc(N2CCN(C(=S)Nc3cccc(F)c3)CC2)cc1` the Potency was active: 15.8 µM. In the case of `O=C(O)C(S)[C@@H](S)C(=O)O` (some centres not stated), the Potency is reported as active: 7.94 µM. For `CCCCC[C@H](O)/C=C/C1=C(CCCCCCC(=O)O)C(=O)CC1`, the Potency was “inactive”. With `COc1ccc2nc3c(c([Si](C)(C)C(C)(C)C)c2c1)Cn1c-3cccc1=O` the Potency was inconclusive: 35.5 µM [inhibitor, partial curve]. In the case of `CCOc1ccc(CCNC(=O)c2ccc(CS(=O)Cc3cccc(Cl)c3)o2)cc1` (configuration not stated), the Potency is reported as “inactive”. For `COc1ccc(NC(=O)c2c(NCc3sccc3C)sc3c2CCCCC3)c(OC)c1`, the Potency was active: 28.2 µM. For `O=C(c1cnn(C(=O)c2ccc(O)cc2)c1)c1ccccc1O`, the Potency was inconclusive: 39.8 µM [inhibitor, single point]. For `Nc1c(C(=O)NC2CC2)c2nc3ccccc3nc2n1-c1ccc2c(c1)OCO2`, the Potency was inconclusive: 14.1 µM [inhibitor, partial curve]. For `CC(Sc1cn(CCNC(=O)c2ccccc2F)c2ccccc12)c1ccccc1` (configuration not stated), the Potency was inconclusive: 15.8 µM [inhibitor, partial curve]. For `Cc1ccc(C=Nc2cccnc2N)cc1`, the Potency was “inactive”. `CCOC(=O)C(C(=O)OCC)C(Nc1ccc(Br)cc1)c1ccccc1` (configuration not stated) was tested, and the Potency was inconclusive: 25.1 µM [inhibitor, single point]. For `CCN(CCCNC(=O)CSc1cc(=O)n(CC)c2ccccc12)c1cccc(C)c1`, the Potency was inconclusive: 17.8 µM [inhibitor, single point]. For `CCOC(=O)/C(C#N)=C1\Nc2ccccc2N=C1N(CC(C)C)CC(C)C`, the Potency was inconclusive: 15.8 µM [inhibitor, partial curve]. In the case of `Cc1ccc(NC(=O)c2c(C)oc3nc(C)nc(N4CCCC4)c23)c(C)c1`, the Potency is reported as “inactive”. `O=C(Nc1ccc(Nc2ccccc2)cc1)Nc1ccccc1Cl` was tested, and the Potency was active: 3.98 µM. For `O=C(NCc1cccnc1)/C(=C\c1ccc(-c2cccc(Cl)c2)o1)S(=O)(=O)c1ccccc1`, the Potency was inconclusive: 2.51 µM [inhibitor, full curve]. In the case of `Cc1cc(O)c(/C=N/Nc2cccc(Cl)c2)c(=O)o1`, the Potency is reported as “inactive”. `CCC(C(=O)Nc1ccccc1OC)n1nc(C)c2sc3ccccc3c2c1=O` (configuration not stated) was tested, and the Potency was inconclusive: 1.78 µM [inhibitor, full curve]. `CC1CCCN(C(=O)c2sc3cc([N+](=O)[O-])ccc3c2Cl)C1` (configuration not stated) was tested, and the Potency was inconclusive: 12.6 µM [inhibitor, partial curve]. In the case of `O=C(Nc1ccccc1N1CCN(c2ccc(F)cc2)CC1)C12CC3CC(CC(C3)C1)C2`, the Potency is reported as inconclusive: 28.2 µM [inhibitor, partial curve, poor fit]. `Cc1ccc(OC(=O)c2cccc(C(=O)Oc3ccc(C)cn3)n2)nc1` was tested, and the Potency was “inactive”. For `CC12CN3CC(C)(CN(C1)C3c1ccc3ccccc3c1O)C2=O` (configuration not stated), the Potency was inconclusive: 22.4 µM [inhibitor, single point]. For `CC(C)CNc1nc(=S)nc(N(C)C)[nH]1`, the Potency was inconclusive: 39.8 µM [inhibitor, single point]. For `COc1ccc(C2=NN(CN3C(=O)C(=O)c4ccccc43)C(c3cccc([N+](=O)[O-])c3)C2)cc1` (configuration not stated), the Potency was inconclusive: 7.08 µM [inhibitor, partial curve, poor fit]. `Oc1c(Cl)cc(Cl)c(Cl)c1Cc1c(O)c(Cl)cc(Cl)c1Cl` was tested, and the Potency was active: 20 µM. For `CC1=C(C(=O)OCc2ccccc2)C(c2ccccc2-c2ccccc2)NC(=O)N1CCCCCC(=O)O` (configuration not stated), the Potency was inconclusive: 39.8 µM [inhibitor, single point] and inconclusive: 28.2 µM [inhibitor, single point]. `Cc1onc(-c2ccccc2)c1C(=O)Nc1cccnc1` was tested, and the Potency was “inactive”. With `COCC(=O)OC/C(O)=C(\C#N)c1nc2ccccc2[nH]1` the Potency was inconclusive: 15.8 µM [inhibitor, single point]. For `CCCC/C(C)=N/NC(=O)Nc1ccccc1`, the Potency was “inactive”. In the case of `COC(=O)C(C)n1nnc2sc(-c3ccccc3)cc2c1=O` (configuration not stated), the Potency is reported as inconclusive: 20 µM [inhibitor, partial curve, poor fit] and inconclusive: 17.8 µM [inhibitor, partial curve, poor fit]. With `CCOC(=O)N1CCc2c(sc3c2c(=O)n(Cc2ccccc2)c(=O)n3CC(=O)Nc2ccc(C)c(C)c2)C1` the Potency was “inactive”. For `O=C(O/N=C1/CCCc2occc21)c1ccc(F)cc1`, the Potency was inconclusive: 12.6 µM [inhibitor, partial curve]. For `N#C/C(=C\c1cccc([N+](=O)[O-])c1)C(=O)NCc1ccc(Cl)cc1`, the Potency was inconclusive: 35.5 µM [inhibitor, single point]. In the case of `CCN1CCN(C(C(=O)NC2CCCCC2)c2ccc(Cl)cc2)CC1` (configuration not stated), the Potency is reported as “inactive”. In the case of `COc1cc(OC)c(OC)cc1/C=N/NC(=S)NCCN1CCOCC1`, the Potency is reported as “inactive”. `CC(C)C1OC2c3cccc4cccc(c34)C2N1c1ccccc1` (configuration not stated) was tested, and the Potency was inconclusive: 20 µM [inhibitor, partial curve]. `CCc1ccc(C2c3c(oc4ccc(F)cc4c3=O)C(=O)N2c2nc(C)c(C(=O)OC)s2)cc1` (configuration not stated) was tested, and the Potency was “inactive”. `CC(C)C(=O)OC/C(O)=C(\C#N)c1nc2ccccc2[nH]1` was tested, and the Potency was inconclusive: 17.8 µM [inhibitor, partial curve].
